Measured values from article PMC8440430 (Current biology : CB, 2021).

Biological target: T1, GST-p31^comet (human, UniProt Q15013 1-274)
T1 sequence (looked up): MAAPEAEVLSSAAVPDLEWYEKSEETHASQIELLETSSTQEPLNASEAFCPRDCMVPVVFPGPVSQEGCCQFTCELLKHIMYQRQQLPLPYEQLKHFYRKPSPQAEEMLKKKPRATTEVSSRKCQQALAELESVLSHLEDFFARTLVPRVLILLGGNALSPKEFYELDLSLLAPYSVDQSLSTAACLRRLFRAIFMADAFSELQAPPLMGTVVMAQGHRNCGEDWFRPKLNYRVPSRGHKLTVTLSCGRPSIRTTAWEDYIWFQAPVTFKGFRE
Assay: pull-down

- binding result: binds
B1: His6-RIT1 (natural protein)
chain: not shown
